Hit rate of the full screen: of about 310,000 compounds, about 14,000 (4.5%) showed an effect of 50% or more. Effects have a minus sign here. The list shows a part of the results.
Each compound was assayed against human ether-à-go-go-related gene (hERG) potassium channel (human, UniProt Q12809) (assay: primary screen, population patch clamp on CHO cells stably expressing hERG).
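Further: peak tail current of the secondary pulse compared with the same well before compound.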

Chain of human ether-à-go-go-related gene (hERG) potassium channel (Q12809 whole entry, looked up): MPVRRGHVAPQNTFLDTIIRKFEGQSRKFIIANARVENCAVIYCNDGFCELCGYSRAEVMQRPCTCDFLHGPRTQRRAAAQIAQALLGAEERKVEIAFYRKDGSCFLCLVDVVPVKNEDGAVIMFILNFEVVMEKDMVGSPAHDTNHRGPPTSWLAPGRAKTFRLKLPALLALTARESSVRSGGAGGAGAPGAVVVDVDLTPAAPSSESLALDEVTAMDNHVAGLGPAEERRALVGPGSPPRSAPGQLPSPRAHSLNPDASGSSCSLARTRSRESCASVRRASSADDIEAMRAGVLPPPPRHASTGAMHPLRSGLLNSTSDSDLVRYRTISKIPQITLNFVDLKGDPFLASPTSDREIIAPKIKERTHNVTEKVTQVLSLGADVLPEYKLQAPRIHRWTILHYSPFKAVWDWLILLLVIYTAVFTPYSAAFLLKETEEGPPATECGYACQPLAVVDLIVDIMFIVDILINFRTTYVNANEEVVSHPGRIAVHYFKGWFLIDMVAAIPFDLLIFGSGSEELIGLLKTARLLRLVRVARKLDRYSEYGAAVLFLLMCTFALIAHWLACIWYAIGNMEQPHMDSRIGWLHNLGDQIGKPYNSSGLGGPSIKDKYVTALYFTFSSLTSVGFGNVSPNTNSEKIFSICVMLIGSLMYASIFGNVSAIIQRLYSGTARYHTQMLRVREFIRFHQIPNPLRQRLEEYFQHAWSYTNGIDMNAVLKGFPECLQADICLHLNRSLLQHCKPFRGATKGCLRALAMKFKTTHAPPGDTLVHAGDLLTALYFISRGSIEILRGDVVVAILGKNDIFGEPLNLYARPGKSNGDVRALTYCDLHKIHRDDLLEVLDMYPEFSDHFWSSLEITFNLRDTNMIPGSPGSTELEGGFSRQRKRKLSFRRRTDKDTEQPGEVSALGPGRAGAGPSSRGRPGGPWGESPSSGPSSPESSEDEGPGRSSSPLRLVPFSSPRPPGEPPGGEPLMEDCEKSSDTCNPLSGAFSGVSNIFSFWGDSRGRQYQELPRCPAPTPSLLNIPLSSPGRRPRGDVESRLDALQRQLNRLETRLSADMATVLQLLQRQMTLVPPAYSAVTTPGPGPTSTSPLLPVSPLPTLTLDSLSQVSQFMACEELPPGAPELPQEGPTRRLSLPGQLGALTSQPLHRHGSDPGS

Compound	hERG current change (%, negative = inhibition) at 10uM [%]
CCOC(=O)c1c(C)nc2ccccn12	-11.2
CC(=O)c1ccccc1OCCn1nc(C(=O)O)c2ccccc2c1=O	-12.6
COc1ccc(CN(C)CC(=O)NC(=O)NCc2ccccc2)c(OC)c1	-19
O=C(NCC1CCCO1)c1cccc(NC(=O)c2cccs2)c1 (stereo not shown)	6.61
Cc1cccc2cc(CN(CC3CCCO3)C(=O)c3cccs3)c(=O)[nH]c12 (stereo not shown)	7.38
C=CCOc1ccc(CN(C)C(=O)CN2C(=O)c3ccccc3C2=O)cc1	-2.58
C[N+]1(C)C2CC(OC(=O)[C@H](CO)c3ccccc3)CC1C1OC12.O=[N+]([O-])[O-] (stereo partly shown)	8.04
COc1ccc(CCN2C(=O)NC(NS(=O)(=O)c3ccccc3)(C(F)(F)F)C2=O)cc1OC (stereo not shown)	-15.5
Br.COC(=O)c1ccc(OCCN2C3=NCCN3c3ccccc32)cc1	-68.7
Cc1cccc(NC(=O)c2cnn(C)c2)c1C	4.72
O=C(COC(=O)c1ccccc1O)NCCC1=CCCCC1	22.1
CN1CCN(c2nc(-c3ccccc3)ncc2S(C)(=O)=O)CC1	-48.4
COCCSc1ccccc1C(=O)NCC1CCCO1 (stereo not shown)	-7.6
CCOC(=O)c1c(S(=O)(=O)Nc2ccc(CN3CCC(C)CC3)cc2)c(C)n(C)c1C	-8.7
Cc1sc2nc(COC(=O)c3ccc(O)cc3)[nH]c(=O)c2c1C	8.85
O=C(Nc1cccc(F)c1)C1CCN(C(=O)c2ccc(Br)cc2)CC1	-65.1
CC(C)(C)c1ccc(C(=O)CC(Sc2ccc(Cl)cc2)C(=O)O)cc1 (stereo not shown)	-9.54
O=C(CCCN1C(=O)/C(=C/c2ccccc2Cl)SC1=S)NNC(=O)c1ccc(Cl)cc1Cl	10.2
COC(=O)c1cnc(N2CCOCC2)nc1C(F)(F)F	-1.97
Cc1ccccc1C(=O)NNC(=O)CCc1ccccc1	23.1
CC(=O)c1c(C)[nH]c(C(=O)CN2CCN(S(=O)(=O)c3ccccc3[N+](=O)[O-])CC2)c1C	-6.62
Cc1cccc(NC(=O)CSc2nccn2Cc2ccco2)c1	0.772

Compound	hERG current change (%, negative = inhibition) at 10uM [%]
O=C(Cn1c(=S)[nH]c2ccccc2c1=O)N1CCC2(CC1)OCCO2	7.19
CCOC(=O)c1sc(NC(=O)C(CC)OC(=O)C(CC(C)C)NC(=O)c2ccccc2)nc1C (stereo not shown)	5.98
COc1ccc(CN(CC(=O)NCc2ccc3c(c2)OCO3)C(=O)c2csnn2)cc1	-39.8
COc1ccc(CN2CCN(C(C)C(=O)NC(C)c3ccc(F)cc3)CC2)cc1F (stereo not shown)	-62
Cc1nn(C(C)C(=O)NCc2ccccc2Cl)c(=O)c2c1sc1ccccc12 (stereo not shown)	-5.99
Cc1ccc2oc(C(=O)N3CCCCCC3)c(C)c2c1	-0.864
COc1ccccc1N1CCN(S(=O)(=O)c2ccc(F)cc2)CC1	0.437
O=C(O)CCc1ccc(-c2ccccc2)n1CC1CCCO1 (stereo not shown)	5.67
O=C(CNC1CCCC1)Nc1cc(Cl)ccc1[N+](=O)[O-].O=C(O)C(=O)O	-9.26
COC(=O)c1cccc(C(=O)N2CCC(CO)(CCc3ccccc3)CC2)c1	-13.6
Cc1ccc(OCC(=O)Nc2ccc(Cl)cc2C(=O)c2ccccc2)cc1	8.53
O=C(NCc1ccccc1)c1ccc2c(c1)C(=O)N(CC1CCCO1)C2=O (stereo not shown)	-33.5
Cc1cc(C)c2oc(=O)cc(CN3CCCCC3)c2c1	21.1
CCCCCn1c(N)c(C(=O)NCCN2CCOCC2)c2nc3ccccc3nc21	-17.1
Fc1ccc(Nc2nc(Oc3ccc4c(c3)OCO4)nc(N3CCOCC3)n2)c(F)c1	25.9
CCCNC(=O)/C(C#N)=C1\N=C(NC(=O)c2ccco2)c2ccccc21	-44.6
CCNc1nc2c(c(=O)[nH]c(=O)n2C)n1Cc1ccc(F)cc1	-2.72
CC(=O)C1=C(C)Nc2ncnn2C1c1cccc(OCc2ccccc2)c1 (stereo not shown)	1.29
COc1ccccc1C(=O)COC(=O)Cc1c[nH]c2ccccc12	-27.1
COc1cc(/C=C/C(=O)OC(C)C(=O)NC2CCCCC2C)cc(Cl)c1OC (stereo not shown)	13.8
CC(=O)N1[C@H](Cc2ccccc2)C=C[C@]1(C)C(=O)NCc1ccc(C)o1	5
O=C(COC(=O)c1ccc(Br)cc1)NCCc1ccccc1	8.99

Compound	hERG current change (%, negative = inhibition) at 10uM [%]
COCCN(C(=O)COC(=O)C1(C)CC1(Cl)Cl)c1c(N)n(Cc2ccccc2)c(=O)[nH]c1=O (stereo not shown)	24.9
COc1ccc(NC(=O)CSc2nnc3n2CCCCC3)cc1S(=O)(=O)N1CCOCC1	-8.46
CN(C)c1ccc(/C=N/N(CCC(=O)NC(C)(C)C)C2=NS(=O)(=O)c3ccccc32)cc1	16.5
COC(CN(C(=O)CCl)C(C(=O)NC1CCCCC1)c1ccc(C)cc1)OC (stereo not shown)	-3.26
O=C(c1ccncc1)N1CCN(c2ccc(F)cc2)CC1	-7.77
Cn1c(=O)c2[nH]c(Nc3ccccc3)nc2n(C)c1=O	-12.1
Cc1ccc(S(=O)(=O)N(CC(=O)NCc2ccco2)C2CCCCC2)cc1	-24.4
CC(C)OCC(O)CN1CCC(Cc2ccccc2)CC1.Cl (stereo not shown)	-56.9
Cc1nc2ccc(Nc3nc4cc(S(=O)(=O)N5CCOCC5)ccc4o3)cc2s1	3.42
COC(=O)c1ccc(NC(=O)CN2C(=O)CC(C)S(=O)(=O)c3ccccc32)cc1 (stereo not shown)	5.54
Cc1cc(Cl)ccc1NC(=S)NCCCN1CCCC1=O	7.99
Cc1ccc(S(=O)(=O)c2ccc(Cl)cc2)cc1S(=O)(=O)NC(C)C(=O)O (stereo not shown)	14.7
COc1ccc(OC)c(S(=O)(=O)NCCO)c1	8.08
NC(=O)CSc1ncc(-c2ccc([N+](=O)[O-])cc2)[nH]1	-14.6
O=C1CCCCC1C(O)c1ccc(Cl)cc1 (stereo not shown)	2.85
CC(C)N(C(=O)Cn1cc(S(=O)(=O)CC(=O)NCc2ccccc2)c2ccccc21)C(C)C	-22.4
CCOC(=O)Cn1nc(/C=C/c2ccccc2)ccc1=O	-8.37
O=C(NC(=S)Nc1ccc(Cl)cn1)C(c1ccccc1)c1ccccc1	-4.15
COc1ccc(S(=O)(=O)N2CCCCC2)cc1NC(=O)c1ccc(N2CCCC2=O)cc1	-18.4
CSc1nc2c(cnn2-c2ccc(C)c(C)c2)c(=O)[nH]1	14.1
Brc1ccc(-c2noc(-c3ccccc3)n2)o1	10.9
COc1cc(/C=N/n2nnnc2N)cc(OC)c1OC	-0.774

Compound	hERG current change (%, negative = inhibition) at 10uM [%]
COc1ccc(CCNc2ncnc3c2c(C)c(C)n3CCCN(C)C)cc1OC	-39.9
COc1cccc(N2CCN(c3ccc4nnc(CCC(=O)Nc5ccccn5)n4n3)CC2)c1	-42.2
O=C(c1ccco1)N1CCN(C(=S)Nc2cccc([N+](=O)[O-])c2)CC1	-63.3
CCN(CC)C(=O)CSc1nnc(-c2cc3ccccc3cc2O)n1CC	-29.8
COC(=O)c1c(C)oc2ccc(NS(=O)(=O)c3cc(OC)ccc3OC)cc12	19.5
CCc1ccc(C(=O)CCC(=O)Nc2ccc(OC)c(S(=O)(=O)N3CCCCC3)c2)cc1	-20.7
C/C(=N\NC(=O)c1cc(-c2cccs2)nc2ccccc12)c1ccccn1	12.1
O=C(Cc1ccccc1)Nc1nnc(-c2ccco2)o1	10.7
Cc1ccc(NC(=O)CNC(=O)COc2ccccc2)nc1	4.91
C#C[C@@]1(O)CCC2C3CCC4=C/C(=N/OCC(=O)NC(CCC(N)=O)C(=O)O)CC[C@]4(C)C3CC[C@@]21C (stereo partly shown)	18.2
CCN(CC)CP(=O)(c1ccccc1)c1ccccc1	4.9
CCN(Cc1cc2cc(C)ccc2[nH]c1=O)C(=O)c1cccc(OC)c1	-22.3
Cc1ccccc1C(=O)NCCSc1ccccc1	-6.53
CC(=O)/C(=N\Nc1ccccc1)Oc1ccc([N+](=O)[O-])cc1	-8.01
Cc1c(C(=O)N2CCOCC2)[nH]c2ccc(OCc3ccccc3)cc12	-13.2
CCOc1ccc(NS(=O)(=O)c2ccc(C(=O)NCC(c3ccco3)N3CCCC3)cc2)cc1 (stereo not shown)	-23.1
O=C(CSc1cn[nH]n1)Nc1cccc(C(=O)O)c1	0.934
O=C(O)c1cccc(Cn2cccn2)c1	8.58
COCCNC(=O)Nc1ccc2nc(C)sc2c1	4.08
O=C(NCC1CCCO1)c1ccc(COc2ccccc2Br)cc1 (stereo not shown)	-32
COc1ccc(CCn2c(C)cc(C(=O)CSc3nnnn3C)c2C)cc1	0.08
Cc1nc2nc(-c3ccc(Cl)cc3)nn2c(C)c1Cl	8.82
